Experimental data as given in PMC4336329 (PLoS ONE, 2015).
Among all 310,000 compounds or so, about 14,000 (4.5%) showed an effect of 50% or more. The effect is printed as a negative number. The list shows a part of the results.

Biological target: human ether-à-go-go-related gene (hERG) potassium channel (human, UniProt Q12809)
Assay: primary screen, population patch clamp on CHO cells stably expressing hERG
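Also: peak tail current of the secondary pulse compared with the same well before compound.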

Sequence of human ether-à-go-go-related gene (hERG) potassium channel (Q12809 whole entry, looked up): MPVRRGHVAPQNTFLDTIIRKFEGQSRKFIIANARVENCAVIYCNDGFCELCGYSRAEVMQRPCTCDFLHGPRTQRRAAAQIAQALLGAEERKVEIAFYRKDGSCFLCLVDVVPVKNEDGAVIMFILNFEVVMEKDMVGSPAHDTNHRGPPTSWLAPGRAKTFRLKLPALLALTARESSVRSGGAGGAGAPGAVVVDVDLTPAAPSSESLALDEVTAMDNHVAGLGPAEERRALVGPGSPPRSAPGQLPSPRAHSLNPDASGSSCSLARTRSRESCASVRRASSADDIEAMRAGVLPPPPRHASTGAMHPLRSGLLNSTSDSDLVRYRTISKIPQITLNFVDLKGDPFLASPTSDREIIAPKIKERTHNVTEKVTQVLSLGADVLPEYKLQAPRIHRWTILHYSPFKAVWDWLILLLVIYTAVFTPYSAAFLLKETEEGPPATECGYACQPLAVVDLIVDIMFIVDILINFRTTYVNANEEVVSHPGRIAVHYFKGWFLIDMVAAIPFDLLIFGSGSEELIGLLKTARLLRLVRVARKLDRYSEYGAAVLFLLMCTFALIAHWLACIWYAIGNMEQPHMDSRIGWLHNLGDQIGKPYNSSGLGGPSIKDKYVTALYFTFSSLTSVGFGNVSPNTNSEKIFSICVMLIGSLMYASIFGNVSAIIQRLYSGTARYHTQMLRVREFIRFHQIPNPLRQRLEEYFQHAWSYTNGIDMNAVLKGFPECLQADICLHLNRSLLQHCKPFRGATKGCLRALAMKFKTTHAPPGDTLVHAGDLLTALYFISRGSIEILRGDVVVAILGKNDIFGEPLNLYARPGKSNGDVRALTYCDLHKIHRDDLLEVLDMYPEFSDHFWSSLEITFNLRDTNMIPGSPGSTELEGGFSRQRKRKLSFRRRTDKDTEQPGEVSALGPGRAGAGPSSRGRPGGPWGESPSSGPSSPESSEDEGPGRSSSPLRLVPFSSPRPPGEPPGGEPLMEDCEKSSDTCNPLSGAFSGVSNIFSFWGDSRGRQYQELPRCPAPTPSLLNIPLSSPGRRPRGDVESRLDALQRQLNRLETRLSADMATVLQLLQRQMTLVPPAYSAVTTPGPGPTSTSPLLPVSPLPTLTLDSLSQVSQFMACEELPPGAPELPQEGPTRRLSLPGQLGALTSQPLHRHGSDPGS

Compound | hERG current change (%, negative = inhibition) at 10uM
COc1cccc(C2CC(c3ccccc3Cl)n3nc(N)nc3N2)c1 (centres unmarked) | -9.01%
COc1cc(/C=N/NC(=O)c2cnccn2)ccc1O | -10.8%
Cc1ccsc1C(=O)Nc1n[nH]c(C(F)(F)F)n1 | 4.4%
Cc1ccc(C(=O)OCC(=O)Nc2cc(C(C)(C)C)no2)c(C)c1 | 6.04%
c1cncc(-c2cccnc2)c1 | 21.8%
C=CCn1c(N)c(S(=O)(=O)c2cccs2)c2nc3ccccc3nc21 | -1.18%
Cc1ccc(/C=C/C(=O)Nc2ccc(S(=O)(=O)Nc3ncccn3)cc2)cc1 | 47.5%
Cc1c(O)ccc(C(=O)CN2CCN(c3ccc(F)cc3)CC2)c1O | 18.8%
CCOC(=O)Cc1c(C)nc2c(-c3ccccc3)c(C)nn2c1C | -22.6%
COc1cc(C=O)cc(Cl)c1OC(=O)N1CCOCC1 | 25.3%
COc1cc(OC)c(S(=O)(=O)Nc2ccccc2N2CCOCC2)cc1NC(C)=O | 4.13%
CN(Cc1ccccc1)c1ncnc2c1cnn2-c1ccccc1 | -4.87%
C=CC(=O)OCCOCCOCCOCCOC(=O)C=C | 15.9%
CCOc1ccccc1Oc1coc2cc(O)ccc2c1=O | -11.4%
Cc1ccccc1-c1cc(C(=O)NCC2CC2)n(CC2CC(c3cccnc3)=NO2)n1 (centres unmarked) | -20%
CC(=O)Nc1ccc(N2C(=O)CSC2c2ccc(F)cc2)cc1 (centres unmarked) | 3.08%
CC(C)(C)c1[nH]c2ccccc2c1/C=N/O | 11.4%
CC(NC(=O)c1cc(=O)[nH]c2ccccc12)c1ccccc1 (centres unmarked) | 8.8%
COC(=O)COc1ccsc1C(=O)OC | -6.53%
CCCCOC(=O)Cn1c(-c2ccccc2)nc2ccccc2c1=O | 14.3%
Cc1onc(NC(=O)c2ccc([N+](=O)[O-])o2)c1Br | 4.01%
O=C1N/C(=C\c2ccc(O)cc2)C(=O)c2ccccc21 | -1.53%
CCN(CC)CCNc1cc(C)nc2c1C(=O)C(=O)C=C2N1CCCCC1 | -0.139%
Cc1occc1C(=O)N1CCN(c2ncccn2)CC1 | 2.54%

Compound | hERG current change (%, negative = inhibition) at 10uM
CCN(c1ccc(C)cc1)S(=O)(=O)c1nnc(NC(=O)c2ccco2)s1 | 3.01%
O=C(c1ccc2c(c1)N(Cc1ccccc1)CCS2)N1CCCCC1 | -32.9%
COc1cccc(OCc2cc(C(=O)N(C)CCC3CCCCO3)no2)c1 (centres unmarked) | -2.94%
Cc1cc(S(=O)(=O)N2CCCCCC2)c(Cl)cc1Cl | 7.69%
CC(/C=N/Nc1nnc2c(n1)[nH]c1ccccc12)=C\c1ccco1 | 2.74%
O=C1CCN(S(=O)(=O)c2ccc(Cl)cc2)N1 | 9.88%
Cc1ccccc1CSCCC(=O)NCCC1=CCCCC1 | 5.34%
CC(=O)N(Cc1ccco1)c1nc(C(=O)Nc2ccc(Cl)cc2)c(C)s1 | 4.58%
Cc1ccc(NC(=O)CCNS(=O)(=O)c2ccc3[nH]c(=O)oc3c2)cc1C | 9.43%
CC(=O)N1c2ccc(S(=O)(=O)NCCC(=O)NCc3ccc(Cl)cc3)cc2CC1C (centres unmarked) | -10.2%
COc1ccc(OC)c(C(=O)Nc2c(O)ccc3ccccc23)c1 | 9.35%
Cc1ccc(NS(=O)(=O)c2ccc3c(c2)CCN3C(=O)CCC(=O)O)cc1Cl | 17.4%
Cc1cc(=O)oc2cc(NC(=O)CCOc3ccccc3)ccc12 | 8.94%
CC(=O)Nc1ccc(S(=O)(=O)Nc2nc3ccccc3nc2Sc2nncn2C)cc1 | 2.53%
CC(=O)N1CCN(S(=O)(=O)c2cccc(C(=O)NNC(=O)COc3ccc(Cl)cc3C)c2)CC1 | 3.63%
CCOC(=O)c1cc(S(=O)(=O)NCCc2ccccc2)cn1C | 2.98%
Cc1ccccc1C(=O)Nc1ccc(S(=O)(=O)N2CCCC2)cc1 | 3.69%
CC(=O)c1sc(NC(=O)CCOc2ccccc2)nc1C | 5.9%
Cl.O=C(CSc1nc2ccc(Cl)cc2[nH]1)c1cccs1 | 5%
O=C(OCCn1cncn1)c1cc2ccccc2oc1=O | 6.78%
Cn1c(-c2sc(=S)n(-c3ccccc3)c2N)nc2ccccc21 | -9.51%
O=C(CN(c1ccccc1)S(=O)(=O)c1ccccc1)Nc1ccccc1C(=O)NCc1ccco1 | 3.93%
CCn1c(SCC(=O)N2CCOCC2)nc2ccccc21 | 8.56%
